This is an account of results in the supplement of paper PMC4604168 (melanoma cell lines).

The other results are listed elsewhere or left out. Many values rest on one well or one pass, so single values are uncertain.
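Also: cells treated in 1,536-well plates, then fixed and DAPI-stained, with nuclei counted from automated high-throughput microscope images.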

This assay deals with A101D. In words: cell count relative to DMSO control; melanoma cells; higher = more viable cells. As to conditions: library dose: standard library concentration; 72 h.
Regarding `O=C(/C=C/c1cccnc1)NCCCCC1CCN(C(=O)c2ccccc2)CC1` + CCCCCCCCc1ccc(CCC(N)(CO)CO)cc1 [fingolimod] (first compound 0.05 µM, partner dose 10 µM), the cell count came out at 3.46%.
With `CC1(C)CCC(c2ccc(Cl)cc2)=C(CN2CCN(c3ccc(C(=O)NS(=O)(=O)c4ccc(N[C@H](CCN5CCOCC5)CSc5ccccc5)c(S(=O)(=O)C(F)(F)F)c4)cc3)CC2)C1` + C[C@]1(c2nc3c(C(N)=O)cccc3[nH]2)CCCN1 [Veliparib] (first compound 2 µM, partner dose 7 µM) the figure was 45.2%.
`Cc1ccc(Nc2nccc(N(C)c3ccc4c(C)n(C)nc4c3)n2)cc1S(N)(=O)=O` [Pazopanib] + C=CCNC1=C2C[C@@H](C)C[C@H](OC)[C@H](O)[C@@H](C)/C=C(\C)[C@H](OC(N)=O)[C@@H](OC)/C=C\C=C(/C)C(=O)NC(=CC1=O)C2=O [Tanespimycin] (first compound 2 µM, partner dose 0.01 µM): the cell count came to 72%.
With `Cc1ccc(Nc2nccc(N(C)c3ccc4c(C)n(C)nc4c3)n2)cc1S(N)(=O)=O` [Pazopanib] + OCCn1cc(-c2cnc3nnn(Cc4ccc5ncccc5c4)c3n2)cn1 [PF04217903] (first compound 2 µM, partner dose 5 µM) the figure was 89.5%; with `O=C(/C=C/c1cccnc1)NCCCCC1CCN(C(=O)c2ccccc2)CC1` + C[C@]1(c2nc3c(C(N)=O)cccc3[nH]2)CCCN1 [Veliparib] (first compound 0.05 µM, partner dose 7 µM), 91%.
On to `O=C(/C=C/c1cccnc1)NCCCCC1CCN(C(=O)c2ccccc2)CC1` + CO[C@@H]1[C@H](N(C)C(=O)c2ccccc2)C[C@H]2O[C@]1(C)n1c3ccccc3c3c4c(c5c6ccccc6n2c5c31)C(=O)NC4 [Midostaurin] (first compound 0.05 µM, partner dose 0.4 µM), for which the cell count turned out to be 64.2%.
To `O=C(/C=C/c1cccnc1)NCCCCC1CCN(C(=O)c2ccccc2)CC1` + CC1(C)CCC(c2ccc(Cl)cc2)=C(CN2CCN(c3ccc(C(=O)NS(=O)(=O)c4ccc(N[C@H](CCN5CCOCC5)CSc5ccccc5)c(S(=O)(=O)C(F)(F)F)c4)cc3)CC2)C1 [ABT263] (first compound 0.05 µM, partner dose 2 µM) belongs 41.1%.
With `O=C(/C=C/c1cccnc1)NCCCCC1CCN(C(=O)c2ccccc2)CC1` + C[C@@H]1CCN(C(=O)CC#N)C[C@@H]1N(C)c1ncnc2[nH]ccc12 [CP690550] (first compound 0.05 µM, partner dose 5 µM) the figure was 67%; with `O=C(/C=C/c1cccnc1)NCCCCC1CCN(C(=O)c2ccccc2)CC1` + Cc1cc(N2CCOCC2)cc2[nH]c(-c3c(NC[C@@H](O)c4cccc(Cl)c4)cc[nH]c3=O)nc12 [BMS536924] (first compound 0.05 µM, partner dose 1 µM), 77.2%; with `CC1(C)CCC(c2ccc(Cl)cc2)=C(CN2CCN(c3ccc(C(=O)NS(=O)(=O)c4ccc(N[C@H](CCN5CCOCC5)CSc5ccccc5)c(S(=O)(=O)C(F)(F)F)c4)cc3)CC2)C1` + Cc1ccc(NC(=O)c2cccc(N(C)C)c2)cc1NC(=O)c1ccc(O)cc1 [ZM336372] (first compound 2 µM, partner dose 10 µM), 32%.
In the case of `Cc1ccc(Nc2nccc(N(C)c3ccc4c(C)n(C)nc4c3)n2)cc1S(N)(=O)=O` [Pazopanib] + CC(=O)c1c(C)c2cnc(Nc3ccc(N4CCNCC4)cn3)nc2n(C2CCCC2)c1=O [palbociclib] (first compound 2 µM, partner dose 0.2 µM), the cell count was 64.1%.
Turning to `Cc1ccc(Nc2nccc(N(C)c3ccc4c(C)n(C)nc4c3)n2)cc1S(N)(=O)=O` [Pazopanib] + NC(=O)c1ccc(N(C(N)=O)c2c(F)cccc2F)nc1-c1ccc(F)cc1F [VX702] (first compound 2 µM, partner dose 2 µM), the cell count stood at 123%.
